{"source": "paper PMC12820563", "about": "“FoxP3 forms a head-to-head dimer in vivo and stabilizes its multimerization on adjacent microsatellites”", "note": "The other results are listed elsewhere or left out.", "data": [{"molecular_target": "T1, MBP-FoxP1dN (Mus musculus, UniProt P58462 326-579)", "T1 sequence": "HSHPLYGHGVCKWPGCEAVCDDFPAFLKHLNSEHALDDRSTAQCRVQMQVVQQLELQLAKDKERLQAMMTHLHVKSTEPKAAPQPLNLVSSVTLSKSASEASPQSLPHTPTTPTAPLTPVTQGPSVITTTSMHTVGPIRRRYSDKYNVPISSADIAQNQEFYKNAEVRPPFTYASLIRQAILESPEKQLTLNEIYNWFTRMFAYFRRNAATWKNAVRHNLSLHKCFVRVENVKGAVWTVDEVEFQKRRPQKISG", "test": "PD-seq (MBP pull-down with sequencing); 20 mM Tris-HCl pH 7.5, 100 mM NaCl, 1.5 mM MgCl2, 0.4 uM protein, 0.1 uM dsDNA library, 30 min, room temperature, amylose pull-down; high values mean tight binding", "settings": "protein: recombinant; tags: His6-MBP; chain copies: 2; dsDNA, one strand shown", "method_in_brief": "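In Tris pH 7.5 buffer with NaCl and MgCl2, 0.4 µM His6-MBP-tagged mouse FoxP3 or FoxP1 fragment lacking the N-terminus, from E. coli, met 0.1 µM Klenow-filled double-stranded degenerate DNA library for 30 min at room temperature. Three washes on amylose resin followed capture of the complexes, then proteinase K release of DNA, PCR barcoding and Illumina sequencing. Binding is taken as pooled-replicate reads-per-million enrichment of pull-down relative to input.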", "values": [{"sequence": "GATGATTGTTCTCCCAGCTGATGAATTAAGTGATTCGAGTAAACAAATTTTCCTAATCTTTCTGTTCAAGCGCCATCTAC", "binding signal": "0.916 RPM ratio (pull-down/input)"}, {"sequence": "GATGATTGTTCTCCCAGCTGATGAATTCTCGGCTTCGAGTAAACAAATTTTCCTAATCTTTCTGTTCAAGCGCCATCTAC", "binding signal": "0.78 RPM ratio (pull-down/input)"}, {"sequence": "GATGATTGTTCTCCCAGCTGATGAATTAGAGCTGTCGAGTAAACAAATTTTCCTAATCTTTCTGTTCAAGCGCCATCTAC", "binding signal": "0.882 RPM ratio (pull-down/input)"}, {"sequence": "GATGATTGTTCTCCCAGCTGATGAATTCGCATCCTCGAGTAAACAAATTTTCCTAATCTTTCTGTTCAAGCGCCATCTAC", "binding signal": "1.24 RPM ratio (pull-down/input)"}, {"sequence": "GATGATTGTTCTCCCAGCTGATGAATTATATCGCTCGAGTAAACAAATTTTCCTAATCTTTCTGTTCAAGCGCCATCTAC", "binding signal": "0.946 RPM ratio (pull-down/input)"}, {"sequence": "GATGATTGTTCTCCCAGCTGATGAATTGGCTAGGTCGAGTAAACAAATTTTCCTAATCTTTCTGTTCAAGCGCCATCTAC", "binding signal": "0.79 RPM ratio (pull-down/input)"}, {"sequence": "GATGATTGTTCTCCCAGCTGATGAATTCAGCGCCTCGAGTAAACAAATTTTCCTAATCTTTCTGTTCAAGCGCCATCTAC", "binding signal": "0.988 RPM ratio (pull-down/input)"}, {"sequence": "GATGATTGTTCTCCCAGCTGATGAATTCTGAGAATCGAGTAAACAAATTTTCCTAATCTTTCTGTTCAAGCGCCATCTAC", "binding signal": "0.923 RPM ratio (pull-down/input)"}, {"sequence": "GATGATTGTTCTCCCAGCTGATGAATTTCGGCGCTCGAGTAAACAAATTTTCCTAATCTTTCTGTTCAAGCGCCATCTAC", "binding signal": "0.772 RPM ratio (pull-down/input)"}, {"sequence": "GATGATTGTTCTCCCAGCTGATGAATTCAGTTTGTCGAGTAAACAAATTTTCCTAATCTTTCTGTTCAAGCGCCATCTAC", "binding signal": "1.29 RPM ratio (pull-down/input)"}, {"sequence": "GATGATTGTTCTCCCAGCTGATGAATTGACGACATCGAGTAAACAAATTTTCCTAATCTTTCTGTTCAAGCGCCATCTAC", "binding signal": "1.16 RPM ratio (pull-down/input)"}, {"sequence": "GATGATTGTTCTCCCAGCTGATGAATTACTAGGTTCGAGTAAACAAATTTTCCTAATCTTTCTGTTCAAGCGCCATCTAC", "binding signal": "0.969 RPM ratio (pull-down/input)"}, {"sequence": "GATGATTGTTCTCCCAGCTGATGAATTATAATATTCGAGTAAACAAATTTTCCTAATCTTTCTGTTCAAGCGCCATCTAC", "binding signal": "1.11 RPM ratio (pull-down/input)"}, {"sequence": "GATGATTGTTCTCCCAGCTGATGAATTGAGCAAGTCGAGTAAACAAATTTTCCTAATCTTTCTGTTCAAGCGCCATCTAC", "binding signal": "0.74 RPM ratio (pull-down/input)"}, {"sequence": "GATGATTGTTCTCCCAGCTGATGAATTTGTGACGTCGAGTAAACAAATTTTCCTAATCTTTCTGTTCAAGCGCCATCTAC", "binding signal": "1.15 RPM ratio (pull-down/input)"}, {"sequence": "GATGATTGTTCTCCCAGCTGATGAATTGCAGGAGTCGAGTAAACAAATTTTCCTAATCTTTCTGTTCAAGCGCCATCTAC", "binding signal": "1 RPM ratio (pull-down/input)"}, {"sequence": "GATGATTGTTCTCCCAGCTGATGAATTCACAACGTCGAGTAAACAAATTTTCCTAATCTTTCTGTTCAAGCGCCATCTAC", "binding signal": "1.03 RPM ratio (pull-down/input)"}, {"sequence": "GATGATTGTTCTCCCAGCTGATGAATTGGTGCGATCGAGTAAACAAATTTTCCTAATCTTTCTGTTCAAGCGCCATCTAC", "binding signal": "0.971 RPM ratio (pull-down/input)"}, {"sequence": "GATGATTGTTCTCCCAGCTGATGAATTCGGCAACTCGAGTAAACAAATTTTCCTAATCTTTCTGTTCAAGCGCCATCTAC", "binding signal": "0.89 RPM ratio (pull-down/input)"}, {"sequence": "GATGATTGTTCTCCCAGCTGATGAATTTATCCCTTCGAGTAAACAAATTTTCCTAATCTTTCTGTTCAAGCGCCATCTAC", "binding signal": "1.05 RPM ratio (pull-down/input)"}, {"sequence": "GATGATTGTTCTCCCAGCTGATGAATTTAAAATATCGAGTAAACAAATTTTCCTAATCTTTCTGTTCAAGCGCCATCTAC", "binding signal": "1.12 RPM ratio (pull-down/input)"}, {"sequence": "GATGATTGTTCTCCCAGCTGATGAATTGTGGGAGTCGAGTAAACAAATTTTCCTAATCTTTCTGTTCAAGCGCCATCTAC", "binding signal": "0.924 RPM ratio (pull-down/input)"}, {"sequence": "GATGATTGTTCTCCCAGCTGATGAATTAAGAAGTTCGAGTAAACAAATTTTCCTAATCTTTCTGTTCAAGCGCCATCTAC", "binding signal": "0.822 RPM ratio (pull-down/input)"}, {"sequence": "GATGATTGTTCTCCCAGCTGATGAATTACGAGGGTCGAGTAAACAAATTTTCCTAATCTTTCTGTTCAAGCGCCATCTAC", "binding signal": "0.894 RPM ratio (pull-down/input)"}, {"sequence": "GATGATTGTTCTCCCAGCTGATGAATTACACGTATCGAGTAAACAAATTTTCCTAATCTTTCTGTTCAAGCGCCATCTAC", "binding signal": "1.18 RPM ratio (pull-down/input)"}, {"sequence": "GATGATTGTTCTCCCAGCTGATGAATTCTGGTCCTCGAGTAAACAAATTTTCCTAATCTTTCTGTTCAAGCGCCATCTAC", "binding signal": "0.724 RPM ratio (pull-down/input)"}, {"sequence": "GATGATTGTTCTCCCAGCTGATGAATTGTCCACCTCGAGTAAACAAATTTTCCTAATCTTTCTGTTCAAGCGCCATCTAC", "binding signal": "0.968 RPM ratio (pull-down/input)"}, {"sequence": "GATGATTGTTCTCCCAGCTGATGAATTGTCACTGTCGAGTAAACAAATTTTCCTAATCTTTCTGTTCAAGCGCCATCTAC", "binding signal": "1.11 RPM ratio (pull-down/input)"}, {"sequence": "GATGATTGTTCTCCCAGCTGATGAATTACGGAGCTCGAGTAAACAAATTTTCCTAATCTTTCTGTTCAAGCGCCATCTAC", "binding signal": "0.806 RPM ratio (pull-down/input)"}, {"sequence": "GATGATTGTTCTCCCAGCTGATGAATTGACATTATCGAGTAAACAAATTTTCCTAATCTTTCTGTTCAAGCGCCATCTAC", "binding signal": "1.5 RPM ratio (pull-down/input)"}, {"sequence": "GATGATTGTTCTCCCAGCTGATGAATTTCTTCAATCGAGTAAACAAATTTTCCTAATCTTTCTGTTCAAGCGCCATCTAC", "binding signal": "0.964 RPM ratio (pull-down/input)"}, {"sequence": "GATGATTGTTCTCCCAGCTGATGAATTTCTCAATTCGAGTAAACAAATTTTCCTAATCTTTCTGTTCAAGCGCCATCTAC", "binding signal": "0.994 RPM ratio (pull-down/input)"}]}]}
